PubChem BioAssay AID1347165 (National Center for Advancing Translational Sciences (NCATS), 2019)
Out of some 220,000 compounds screened, about 5,700 (2.6%) were called active. The inconclusive results got no clear call from the source; some entries with a clear call stand among them for comparison. Calls come from the whole dose curve; as a rule, active = well fitted inhibition curve with a large enough effect; inconclusive = small, poorly fitted or top-dose-only effect; inactive = no such curve, though single readings can be large or run the other way. Potencies beside an inconclusive call are fits to weak or partial responses and may not hold up.

What follows are compounds tested against Lysine-specific demethylase 5B (Homo sapiens) (UniProt Q9UGL1) (assay: Primary screen for KDM5B Histone Demethylases FDH-coupled qHTS). Details: FDH-coupled NADH fluorescence (FDH is formaldehyde dehydrogenase); activity change, negative = inhibition: at 57.7 µM (top of the series) unless noted.
UniProt Q9UGL1, sequence (Q9UGL1 whole entry, looked up): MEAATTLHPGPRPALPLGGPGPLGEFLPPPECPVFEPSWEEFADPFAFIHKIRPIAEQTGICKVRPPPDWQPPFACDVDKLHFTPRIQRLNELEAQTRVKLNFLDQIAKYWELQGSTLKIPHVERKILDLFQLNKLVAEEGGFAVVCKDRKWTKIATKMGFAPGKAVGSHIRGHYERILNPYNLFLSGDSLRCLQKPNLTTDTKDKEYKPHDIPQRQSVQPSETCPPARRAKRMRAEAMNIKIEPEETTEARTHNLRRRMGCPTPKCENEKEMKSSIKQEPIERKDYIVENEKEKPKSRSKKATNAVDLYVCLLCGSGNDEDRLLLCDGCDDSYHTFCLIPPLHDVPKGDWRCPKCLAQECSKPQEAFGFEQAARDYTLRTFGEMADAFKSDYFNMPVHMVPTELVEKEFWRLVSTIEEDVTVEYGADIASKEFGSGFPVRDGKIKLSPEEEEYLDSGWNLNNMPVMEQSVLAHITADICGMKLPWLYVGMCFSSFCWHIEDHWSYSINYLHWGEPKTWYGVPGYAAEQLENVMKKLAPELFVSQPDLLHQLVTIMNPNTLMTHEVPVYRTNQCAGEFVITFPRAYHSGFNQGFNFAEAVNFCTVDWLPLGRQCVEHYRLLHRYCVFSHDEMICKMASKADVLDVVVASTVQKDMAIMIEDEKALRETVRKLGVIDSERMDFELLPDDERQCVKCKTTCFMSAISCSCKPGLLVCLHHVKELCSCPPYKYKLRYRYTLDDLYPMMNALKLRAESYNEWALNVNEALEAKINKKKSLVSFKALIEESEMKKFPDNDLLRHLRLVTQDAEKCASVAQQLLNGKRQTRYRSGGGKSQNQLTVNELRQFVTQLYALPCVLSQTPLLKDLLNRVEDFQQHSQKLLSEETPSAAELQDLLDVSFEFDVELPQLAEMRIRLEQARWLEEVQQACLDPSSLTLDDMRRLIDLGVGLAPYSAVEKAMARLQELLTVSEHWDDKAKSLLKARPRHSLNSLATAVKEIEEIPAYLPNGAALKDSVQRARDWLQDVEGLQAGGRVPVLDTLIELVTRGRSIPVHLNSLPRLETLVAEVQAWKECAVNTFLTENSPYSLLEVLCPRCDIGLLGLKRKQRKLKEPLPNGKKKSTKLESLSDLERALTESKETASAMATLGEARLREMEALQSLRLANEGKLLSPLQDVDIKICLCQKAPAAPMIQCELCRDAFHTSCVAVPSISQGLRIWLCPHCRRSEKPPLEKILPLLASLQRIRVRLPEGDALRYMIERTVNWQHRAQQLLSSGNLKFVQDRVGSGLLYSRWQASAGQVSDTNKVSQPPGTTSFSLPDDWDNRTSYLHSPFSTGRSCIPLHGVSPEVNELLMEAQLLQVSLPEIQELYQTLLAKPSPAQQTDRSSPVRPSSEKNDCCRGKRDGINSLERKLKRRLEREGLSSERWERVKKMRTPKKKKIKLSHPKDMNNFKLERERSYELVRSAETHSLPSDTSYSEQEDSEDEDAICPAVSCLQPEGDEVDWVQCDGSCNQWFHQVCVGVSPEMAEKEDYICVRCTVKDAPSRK
Method in brief: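 Here, H3K4me3 peptide (12.5 µM in substrate mix) is demethylated by KDM5BΔAP, 200 nM final, after 10 min compound exposure. Formaldehyde product is coupled through FDH (0.25 U/mL in mix) to NADH fluorescence; 30-min ΔRFU feeds dose-response curves.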
Note: nearly all actives have a fitted effect of over 70% in size.
Potency is the fitted concentration of half-maximal effect; tags give direction and shape of the fitted curve.
Throughout, for activity change, negative = inhibition: 0% is about no effect.

SMILES	activity change, negative = inhibition	Potency
COc1ccccc1CC(=O)N1CCCc2ncc(C(=O)Nc3ccccc3C)cc21	inactive: -11.2% [at 86.2 µM]	
CCc1cc(=O)oc2cc(OCc3nc(-c4cccc(Cl)c4)no3)ccc12		inconclusive: 25.1 µM [inhibitor, partial curve, poor fit]
Cc1ccc(C2c3[nH]c4ccccc4c3CCN2C(=O)Nc2ccc(C)c(C)c2)cc1 (stereo unspecified)		inconclusive: 0.794 µM [inhibitor, full curve, poor fit]
CNC(=O)C1(N2CCC[C@H]2C(=O)NCCc2ccccn2)CCCCC1		inconclusive: 35.5 µM [inhibitor, partial curve]
CC1(C)NC(=O)N(CC(O)CN(c2ccccc2)S(=O)(=O)c2ccc([N+](=O)[O-])cc2)C1=O (stereo unspecified)		inconclusive: 39.8 µM [inhibitor, partial curve, poor fit]
COc1cc2cc(C(=O)N[C@@H](C)C(=O)Nc3nccs3)n(C)c2c(OC)c1OC		inconclusive: 22.4 µM [inhibitor, partial curve, poor fit]
Cc1c(-c2ccc(F)cc2)nc(N)c(C#N)c1-c1cccnc1		inconclusive: 39.8 µM [inhibitor, single point]
C[C@@H](N)C(=O)N1CCC(n2nccc2NC(=O)Nc2cccc(F)c2)CC1		inconclusive: 12.6 µM [inhibitor, single point]
O=C(NCCN1CCNCC1)c1ccccc1O		inconclusive: 28.2 µM [inhibitor, partial curve, poor fit]
CCn1nc(C(=O)NCc2ccc(OC)cc2)c2ccccc2c1=O	inactive: -3.75%	
CCN1CCN(c2c([N+](=O)[O-])cnc3ccc(Br)cc23)CC1	inactive: 3.01%	
COCCN1Cc2ccc(NCC(C)C)nc2C(C)(C(=O)Nc2cccc(F)c2)C1 (stereo unspecified)		active: 31.6 µM
COc1ccc(F)cc1CN1CCC(CO)(CN2CCCC2)CC1	inactive: 13.7%	
O=C(NCC(c1ccccc1)c1ccccc1)c1n[nH]c(=O)c2ccccc12	inactive: 21.6%	
COc1ccc(C(=O)NCCc2sc(-c3ccc(F)cc3)nc2C)cc1OC		inconclusive: 35.5 µM [inhibitor, single point]
Fc1ccc2nc(CO[C@H]3CN(C4CCC4)C[C@H]3F)[nH]c2c1		inconclusive: 39.8 µM [inhibitor, single point]
O=C1c2c(nc(COc3ccccc3)n2Cc2ccccc2)NCCN1Cc1ccccc1		inconclusive: 56.2 µM [inhibitor, single point]
CCCOC(=O)c1cc(NC(=O)c2cc(Br)ccc2OC)ccc1N1CCOCC1		inconclusive: 39.8 µM [inhibitor, single point]
Cc1ccc(-c2cc(C(=O)O)c3cccc(Cl)c3n2)o1		inconclusive: 22.4 µM [inhibitor, partial curve, poor fit]
Cc1cc2oc(=O)c(CC(=O)NCCCO)c(C)c2c2occ(C(C)(C)C)c12		inconclusive: 25.1 µM [inhibitor, partial curve, poor fit]
COc1ccccc1OCC(=O)Nc1nc2c(s1)CC(C)CC2 (stereo unspecified)	inconclusive: -32.6% [inhibitor]	
Cn1cc(CN2CCNc3cc(Nc4cccnc4)ncc3C2)cn1		inconclusive: 39.8 µM [inhibitor, partial curve]

SMILES	activity change, negative = inhibition	Potency
Nc1nc(COC(=O)c2cccc(Cl)c2)nc2ccccc12		inconclusive: 11.2 µM [inhibitor, partial curve, poor fit]
O=C(NCC1CC1)C1CCCN(C2CCN(Cc3ccncc3)CC2)C1 (stereo unspecified)		inconclusive: 10 µM [inhibitor, partial curve, poor fit]
COC(=O)[C@H](Cc1ccc(OC)cc1)NC(=O)[C@@H]1CN(C(=O)c2cccc(F)c2)CCN1C(=O)c1cccc(F)c1	inactive: 26.6%	
Cc1ccc(-c2cc3nccc(-c4cc(C)ccc4O)n3n2)cc1		inconclusive: 25.1 µM [inhibitor, single point]
Cc1cccc(-c2nc(CSc3nncn4c3cc3oc(C)cc34)c(C)o2)c1		inconclusive: 15.8 µM [inhibitor, partial curve, poor fit]
COc1ccc(-c2cc3ccccc3c(=O)o2)cc1		inconclusive: 35.5 µM [inhibitor, partial curve, poor fit]
COc1cc(C(=O)n2nc(-c3ccco3)nc2NCc2ccc(Cl)cc2)cc(OC)c1OC		inconclusive: 35.5 µM [inhibitor, single point]
O=C(O)CCC(=O)N1Cc2ccccc2CC2(CCCCN2CCc2ccccc2)C1 (stereo unspecified)	active: -116% [at 115 µM]	
C[C@H]1[C@@H]2[C@@H](O)C([C@H](C)C(=O)NCc3ccccn3)CC[C@@]2(C)CC[C@@H]1NC(=O)C1CC1 (stereo partly specified)		inconclusive: 44.7 µM [inhibitor, partial curve, poor fit]
CCN1c2cc(C(=O)NCc3cccs3)ccc2C(=O)N2CCCCCC21 (stereo unspecified)		inconclusive: 20 µM [inhibitor, partial curve, poor fit]
CCOC(=O)N1CCN(C(=O)CN(c2cc(Cl)ccc2OC)S(C)(=O)=O)CC1	inactive: 14%	
COCC(=O)NCc1nc(-c2cccc(F)c2)c(-c2ccccn2)[nH]1	inactive: -9.55%	
CC(C)c1ccc(-c2nnc3n(CCc4ccccc4)c(=O)c4ccccc4n23)cc1		inconclusive: 35.5 µM [inhibitor, partial curve, poor fit]
Cc1ccc(CNC(=O)CCc2c(C)nc3nc(CNC(=O)OC(C)(C)C)nn3c2C)cc1		inconclusive: 28.2 µM [inhibitor, partial curve, poor fit]
COc1cccc2cc(CC(=O)c3ccc(C)cc3C)c(=O)oc12	inactive: -16.5%	
CC(=O)c1cccc(Nc2ccc3cc(S(=O)(=O)N4CCC(C)CC4)ccc3n2)c1		inconclusive: 35.5 µM [inhibitor, partial curve, poor fit]
CC(C)(C)NC(=S)N1CCn2cccc2C1c1ccc(F)cc1 (stereo unspecified)		inconclusive: 17.8 µM [inhibitor, partial curve, poor fit]
CCCOc1ccc(C(=O)Nc2cccc3ccc(C)nc23)cc1	inactive: -0.295%	
O=C1CCc2cc(C(=O)NCc3ccnc(N4CCCC4)c3)ccc2N1		inconclusive: 25.1 µM [inhibitor, partial curve, poor fit]
Cc1ccc(-n2c3nc(=O)n(C)c(=O)c-3cc3ccccc32)cc1		inconclusive: 25.1 µM [inhibitor, partial curve, poor fit]
O=C(Nc1ccc2ncnc(N3CCCCC3)c2c1)c1cncc(Br)c1		active: 28.2 µM
C#CCNC(=O)c1nc(-c2ccc(Cl)nc2)c2ccccn12		inconclusive: 56.2 µM [inhibitor, partial curve, poor fit]

SMILES	activity change, negative = inhibition	Potency
CCCCCCCCOC(=O)c1c(CSC(=N)N)n(C)c2cc(Br)c(OC(C)=O)cc12		inconclusive: 25.1 µM [inhibitor, partial curve, poor fit]
O=C(/C=C/c1ccc(Br)o1)NCc1ccccc1		inconclusive: 20 µM [inhibitor, single point]
Cc1oc(-c2cccs2)nc1C(=O)NCCCCN1CCOCC1		inconclusive: 25.1 µM [inhibitor, single point]
COc1cc(/C=C(/C#N)C(=O)OC(C)C)cc(Cl)c1OC	inactive: 7.12%	
CCCOc1ccc(C(=O)Nc2cccc(NC(=O)c3cccc(Cl)c3)c2)cc1	inactive: -15.9%	
O=C(N1CCOCC1)N1CCCC(c2nnc3n2CCNC3)C1 (stereo unspecified)		inconclusive: 100 µM [inhibitor, partial curve]
CCc1cnc(N2CCC(COc3ccc4c(cnn4CC[S+](C)(=O)[O-])c3)CC2)nc1		active: 31.6 µM
O=C1C2CN(Cc3cc(F)ccc3F)CCC2OCCN1CCc1ccccc1 (stereo unspecified)		inconclusive: 31.6 µM [inhibitor, partial curve]
CCO[C@H]1CN(C2CCN(c3ccc(C)c(Cl)c3)CC2)C[C@@H]1O		inconclusive: 17.8 µM [inhibitor, single point]
O=C(Nc1ccc(F)cc1Cl)n1ncc2cc(Cl)ccc21	inconclusive: -33.5% [inhibitor]	
O=C(Nc1cccc(-c2nc3ccccc3s2)c1)C1CCN(C(=O)c2ccco2)CC1		inconclusive: 28.2 µM [inhibitor, single point]
COc1ccc(N2CC(C(=O)NCc3ccc4c(c3)OCO4)NC2=O)cc1 (stereo unspecified)	inactive: -13.9%	
COc1cccc(C(=O)NCCn2ccn3nc(-c4ccc(C)cc4C)cc3c2=O)c1OC		inconclusive: 22.4 µM [inhibitor, single point]
CC(C)NC(=O)c1nc(-c2ccc(Cl)cc2Cl)c2ccccn12		active: 79.4 µM
CN(c1ccccc1)S(=O)(=O)c1cccc(C(=O)N2CCN(c3ncccn3)CC2)c1	inactive: -2.38%	
CCN1c2cc(C(=O)Nc3ccc(Cl)c(C)c3)ccc2C(=O)N2CCCCC21 (stereo unspecified)		inconclusive: 31.6 µM [inhibitor, partial curve, poor fit]
O=C(/C=C/c1ccc(-c2cc(Cl)ccc2Cl)o1)c1ccc(F)cc1	inactive: -4.81%	
CC1=C(C(=O)Nc2ccccc2)C(c2cccc(C)c2)N2C(CC(=O)NCC(C)C)=CSC2=N1 (stereo unspecified)		inconclusive: 28.2 µM [inhibitor, single point]
CCCNC(=O)NC[C@@H]1C=C(C)[C@H](Cc2nc3nc(OC)ccc3[nH]2)C[C@H]1C(C)C		inconclusive: 39.8 µM [inhibitor, single point]
CCCCCCCC(=O)NCc1cccs1	inactive: 2.54%	
O=C(NCc1ccccc1)NCC1Cn2cccc2C(=O)N1Cc1ccccc1 (stereo unspecified)	inactive: -15.4%	
CCc1cccc(C)c1NC(=O)C(C)n1c2ccccc2c2nc(=O)cc(C)n21 (stereo unspecified)		inconclusive: 31.6 µM [inhibitor, single point]
